Values marked as one replicate rest on one cluster of the flow cell; about a third of the high ones do not repeat.

The record followed here is the supplement of paper PMC10126150.

The series concerns ATP. Nature of the series: switch fluorescence ratio, 500 uM ATP over buffer (Cy3 cluster intensity, sum of 5 cycles each) (fold (ratio)); higher = stronger signal-on switching upon ATP binding; sequences stand for … in TCGTCGGCAGCGTCAGATGTGTATAAGAGACAGTTTTTTTTTTTTTTTTTTTTTTTTT…TC. As to conditions: aptamer strand: ATP DNA aptamer (quencher-CACCTGGGGGAGTATTGCGGAGGAAGG + anchor), 100 nM annealed; ATP concentration: 500 uM; one replicate. In short, it runs like this: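 Clusters carrying Cy3-labelled switching strands on a modified Illumina MiSeq flow-cell were annealed to 100 nM quencher-labelled ATP aptamer and imaged in selection buffer. They were imaged again after 15 min with 500 uM ATP at 22 °C, over five buffer/ATP cycles with NaOH stripping and re-annealing in between. For each cluster, the fluorescence ratio is the summed Cy3 intensity of the target cycles divided by that of the buffer cycles, averaged per switch-domain sequence. Clusters outside 100-1000 RFU were left out.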
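Note: ATP exposure 15 min at 22 °C before imaging.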

For the sequence TCCAGATCA, the switch fluorescence ratio was 0.996.
Then GCAGGGGAAC, with 1.04.
With TCTTCAGGGT, the switch fluorescence ratio was found to be 0.984.
With TGAAATGTCA the figure was 1.05; with CAAGAGGACA, 1.07; with CACGATCTAA, 1.03.
For the sequence AAGGGTCCTG, the switch fluorescence ratio worked out at 0.988.
As for GTATTTGTAG, the switch fluorescence ratio was 1.02.
Then AAACGAAAGA, with 1.04; and TCGAGTAGTT, with 0.976; and CTTAAATGCG, with 1.11.
Take AGATCGGTG: the switch fluorescence ratio was 0.985.
As to GGTCACACTT, the switch fluorescence ratio was determined as 0.977.
Regarding TCGACAGAAA, the switch fluorescence ratio was found to be 0.954.
With TATTGCGAGT the figure was 0.978.
Then GGATAACTCG, with 1.06; and TTGTAATCCT, with 1.17; and AAGTCGGTTG, with 1.04.
With TAATTATGTA the figure was 0.991; with CCTGTGAATA, 1.11; with CTGAGATTGG, 1.02.
With ATGACAATGA, the switch fluorescence ratio is 0.99.
With AAAAGCTAAT the figure was 1.02; with TATGCGTCTC, 0.996; with CCGCGCACGA, 2.95.
Turning to CTGGACGAGC, the switch fluorescence ratio came to 1.08.
Then AAACCACATA, with 1.05; and ACCGGGTTTG, with 1.01.
With AGACTGCCA, the switch fluorescence ratio came to 1.07.
With ATCGATAAAT the figure was 0.986; with GTATTGTCTA, 0.986.
Turning to TCTTGGTATG, the switch fluorescence ratio is 0.995.
Consider AGCGAGCTGA, for which the switch fluorescence ratio is 1.02.
Then ACGATGGTAG, with 1.05; and CGGCTTTGGG, with 0.985; and GGCGTGTGA, with 0.998.
With CGGTCTTCAC the figure was 1.04; with GTGAAGTTCC, 1.08.
With TAGGTGCGAT the figure was 1.06; with GGTTGCTAGA, 1.03.
On to ATACTGGACA, for which the switch fluorescence ratio was determined as 1.23.
Regarding GAACGGAGGG, the switch fluorescence ratio is 1.06.
CTGTTGGCGG: the switch fluorescence ratio came out at 0.965.
Then AAGACCCTT, with 1.04; and GTCGGAAGTA, with 1.01.
Consider AGGCTGGCTT, for which the switch fluorescence ratio was 1.01.
With GCGGACTACG the figure was 0.996; with TATGTGCGTA, 1.01; with GGTATGCGTT, 1.05.
Take ATTCTAGGGC: the switch fluorescence ratio is 0.989.
Then AGAATTAGA, with 0.964.
In the case of GAGGTGCTTG, the switch fluorescence ratio worked out at 1.04.
For the sequence AGGGGCGACG, the switch fluorescence ratio came out at 0.958.
With TATGCATCTT the figure was 1.01.
With CCACCATTCT, the switch fluorescence ratio was found to be 0.984.
Then TTCCCTTTGT, with 0.996; and TGCTAGCGCT, with 0.967; and GTTGAACAGC, with 1.
Then GATGGCAAG, with 1.07; and CAGGGGGCGC, with 1.03; and AAAAACGGTA, with 1.13.
Then TAGAAATATT, with 1.03; and GTGCAAAGAC, with 1.95.
For the sequence TGATAATGTA, the switch fluorescence ratio came to 1.02.
With TAACTCAGCG, the switch fluorescence ratio amounted to 1.04.
With AGGGCCAGCA the figure was 1.03; with TAACGGTCAT, 1.03.
With ATGAGGAACT the figure was 0.967; with ATACCCTGTT, 1.04.
Consider TTTGTACCT, for which the switch fluorescence ratio was 1.19.
Then TAAGTGAGAG, with 0.953; and TAACTCGTCT, with 1.02.
Then AAAGTGTAGC, with 1.05; and TTTATGTGTC, with 1.06.
Turning to GAGCTGATCA, the switch fluorescence ratio was determined as 1.
With GCCTCTGTGA the figure was 1.45; with ATGACCTTTG, 0.993.
Consider CAGTAAATCA, for which the switch fluorescence ratio was determined as 0.979.
For the sequence GGGAGATGGG, the switch fluorescence ratio came out at 1.
Then CCGCCAGGGT, with 1.93; and ATTCCCCGGC, with 1.4; and ACTTGGGGC, with 0.984.
Turning to GTGATAACCT, the switch fluorescence ratio came out at 1.43.
With CCCGCAGGAT the figure was 1.6; with GACTTTTTCT, 1.01; with TGCACAACGG, 1.03.
As to GGCAAAGTCT, the switch fluorescence ratio was determined as 1.02.
With TACAAATACT the figure was 3.75; with TTTAACAGGA, 1.03; with GAAAATTGGC, 0.987.
Then GTTTTTGGG, with 0.976; and GGCAAGAGAG, with 1.04.
In the case of TGTTTAATCT, the switch fluorescence ratio came out at 1.03.
Then CGGCTAGTCG, with 1.01.
Then ATCTCCTGTG, with 1.03.
With AAGATGCGGA, the switch fluorescence ratio was 0.967.
With GGCACACTGG, the switch fluorescence ratio came out at 1.01.
Turning to ACACCAAGTA, the switch fluorescence ratio amounted to 1.02.
As for ATGAGATTAC, the switch fluorescence ratio was found to be 1.01.
With GGACGCGCGC the figure was 1.04; with TGAGCTTGCA, 0.985; with GGGGGTATCT, 1.01.
Then GGAACTTGCG, with 0.961; and TACATAGTAA, with 1.06; and TATGGCAGGG, with 0.976.
With CAGGGCAGTC the figure was 1.
As for GTATTAAGCA, the switch fluorescence ratio turned out to be 1.02.
With AACCTATTC the figure was 1.07; with TTCTGACGTG, 0.996.
With AGAGCTTAGC the figure was 0.983; with AGACAGCTGG, 1.06; with ATTCAGTTCT, 0.981.
With CTCAAGAAAG the figure was 0.997; with ATCGACCGTC, 1.06.
As to ATGAATAGGG, the switch fluorescence ratio stood at 0.955.
Then GAGAGGTATC, with 1.06.
With ATTGAGTCAT the figure was 0.992; with GACGAGAGGA, 1.05; with CCCGAAGT, 1.08.
With TGCCTTTGGG the figure was 1.02.
